Assay results: PubChem BioAssay AID485294 (National Center for Advancing Translational Sciences (NCATS), 2010)
Out of some 370,000 compounds screened, about 150 (0.041%) were called active. Inconclusive means that the source gave no clear call. Such entries were picked first, then a sample of the others. The call rests on the fitted dose curve; in most records, active means well fitted inhibition curve with a large enough effect; inconclusive means small, poorly fitted or top-dose-only effect; inactive means flat fitted curve, though single readings scatter. No potency is given beside an inconclusive call; the fits are too rough.

Molecular target: Beta-lactamase (Escherichia coli (strain K12)) (UniProt P00811)
Assay: qHTS Inhibitors of AmpC Beta-Lactamase (assay with detergent); further: nearly all actives have a fitted effect of over 25% in size
Settings: AmpC hydrolysis of nitrocefin, absorbance 480 nm, 0.01% Triton; series mostly up to 114 µM
How it was run: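 20 mM phosphate pH 7.0 + 0.01% (detergent screen) or 0.0001% Triton X-100; 5.3 nM AmpC reagent; cpd preinc 15 min RT; nitrocefin (800 uM stock) to start; A480 q20 s × 4 min; Activity was normalised to no-enzyme and no-compound control wells.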
Potency means the concentration at half of the fitted maximal effect; tags describe the fitted curve by direction and shape.

UniProt P00811, sequence (P00811 whole entry, looked up): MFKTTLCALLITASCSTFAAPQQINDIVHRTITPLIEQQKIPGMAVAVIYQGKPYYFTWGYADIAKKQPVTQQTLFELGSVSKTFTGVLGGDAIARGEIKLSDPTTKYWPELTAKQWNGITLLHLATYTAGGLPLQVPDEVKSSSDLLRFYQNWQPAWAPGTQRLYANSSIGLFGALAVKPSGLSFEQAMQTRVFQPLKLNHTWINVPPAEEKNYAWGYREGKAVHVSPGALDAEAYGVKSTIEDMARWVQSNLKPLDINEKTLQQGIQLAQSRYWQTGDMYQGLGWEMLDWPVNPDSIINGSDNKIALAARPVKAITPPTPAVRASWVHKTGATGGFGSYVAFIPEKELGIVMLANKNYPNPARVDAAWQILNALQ

Q: For `Cc1ccc(-c2ccc(/C=C3/NC(=O)NC3=O)o2)cc1[N+](=O)[O-]`, which Potency is on record?
A: Its Potency is inconclusive [inhibitor, single point].

Q: How did the Potency turn out when `CCc1noc(C)c1C(=O)N1CCN(S(=O)(=O)c2cc(C)ccc2C)CC1` was run?
A: The Potency was inconclusive [inhibitor, partial curve, poor fit].

Q: For `CSc1ccccc1NC(=O)COc1ccc(Cl)cc1Cl`, which Potency is on record?
A: Its Potency is inconclusive [inhibitor, full curve].

Q: How did the Potency turn out when `O=C1N=C(N2CCOCC2)S/C1=C\c1ccc(-c2ccccc2Cl)o1` was run?
A: The Potency was inconclusive [inhibitor, full curve, poor fit].

Q: Which Potency does the source give for `CCn1c(CN2CCC(C)CC2)nc2cc(NC(=O)c3cccc([N+](=O)[O-])c3)ccc21` here?
A: The Potency was “inactive”.

Q: `Cc1c(NC(=O)CSc2nnc(-c3ccco3)n2-c2ccccc2)c(=O)n(-c2ccccc2)n1C` was tested. Which Potency did it give?
A: Its Potency is inconclusive [inhibitor, partial curve, poor fit].

Q: With `O=C(N/N=C\c1cccnc1)c1ccccc1O` as the compound, how does the Potency read?
A: The Potency was “inactive”.

Q: `CC(=O)c1c(C)[nH]c(C(=O)Nc2nc(C)cs2)c1C` was tested. Which Potency did it give?
A: The Potency was inconclusive [inhibitor, partial curve, poor fit].

Q: Which Potency does the source give for `CCN(C(=O)c1cc(S(=O)(=O)N2CCCC2)ccc1C)C1CCS(=O)(=O)C1` (configuration not stated) here?
A: The Potency was inconclusive [inhibitor, full curve, poor fit].

Q: How did the Potency turn out when `Cc1ccc(S(=O)(=O)NC(C(=O)OCC(=O)NC(=O)c2cccn2C)C(C)C)cc1` (configuration not stated) was run?
A: The Potency was inconclusive [inhibitor, full curve, poor fit].

Q: With `CCN(c1ccccc1)S(=O)(=O)c1ccc(OC)c(NC(=O)Cc2ccccc2OC)c1` as the compound, how does the Potency read?
A: Its Potency is inconclusive [inhibitor, full curve].

Q: For `COC(=O)C1=C(C)NC2=C(C(=O)c3ccccc32)C1c1ccc(-c2ccc(C(=O)O)cc2)o1` (configuration not stated), which Potency is on record?
A: The Potency was inconclusive [inhibitor, partial curve].

Q: For `COc1ccc(OC)c(/C=C/C(=O)OCC(=O)Nc2ccc(Cl)c(S(=O)(=O)N(C)C)c2)c1`, which Potency is on record?
A: Its Potency is inconclusive [inhibitor, partial curve, poor fit].

Q: `Cc1ccc(OCCC(=O)Nc2ccccc2C(=O)NC2CC2)cc1` was tested. Which Potency did it give?
A: The Potency was inconclusive [inhibitor, partial curve].

Q: How did the Potency turn out when `Cc1ccccc1C(=O)c1cccn1CC(=O)NCCCc1ccccc1` was run?
A: Its Potency is “inactive”.

Q: Which Potency does the source give for `COc1cc(NC(=O)CN2CCC(Cc3ccccc3)CC2)c(C)cc1[N+](=O)[O-]` here?
A: Its Potency is inconclusive [inhibitor, full curve, poor fit].

Q: How did the Potency turn out when `S=C(Nc1ccccc1Cl)N1CCOCC1` was run?
A: The Potency was inconclusive [inhibitor, full curve].

Q: With `Cn1nnc(NC(=O)c2cccc(F)c2)n1` as the compound, how does the Potency read?
A: The Potency was inconclusive [inhibitor, full curve, poor fit].

Q: `O=C(CSCc1ccc(Cl)cc1Cl)Nc1ccc(O)cc1C(=O)O` was tested. Which Potency did it give?
A: The Potency was inconclusive [inhibitor, full curve, poor fit].

Q: Which Potency does the source give for `O=C(c1ccc(NS(=O)(=O)c2ccc(F)cc2)cc1)N1CCC1` here?
A: Its Potency is “inactive”.

Q: `CC(=O)Nc1nc(C)c(-c2csc(Nc3cccc([N+](=O)[O-])c3)n2)s1` was tested. Which Potency did it give?
A: The Potency was “inactive”.

Q: Which Potency does the source give for `Cc1ccc(C(C)C)c(OCC(=O)Nc2ccc(-c3nc4ncccc4o3)cc2C)c1` here?
A: The Potency was “inactive”.

Q: `CC(NC(=O)NCc1cccnc1)(C(F)(F)F)C(F)(F)F` was tested. Which Potency did it give?
A: The Potency was inconclusive [inhibitor, full curve, poor fit].

Q: How did the Potency turn out when `COc1ccc(CC(=O)Nc2ccc(-c3noc(COc4ccccc4C)n3)cc2)cc1` was run?
A: Its Potency is inconclusive [inhibitor, full curve].

Q: Which Potency does the source give for `N/C(=N\OC(=O)c1cccc(F)c1)c1cccc([N+](=O)[O-])c1` here?
A: Its Potency is “inactive”.

Q: For `O=c1[nH]c(CN2CC=C(c3ccccc3)CC2)nc2cc(C(F)(F)F)ccc12`, which Potency is on record?
A: Its Potency is “inactive”.

Q: For `Cc1nc(-c2cccs2)sc1C(=O)NN`, which Potency is on record?
A: Its Potency is “inactive”.

Q: `CC(NC(=O)CN1CCOCC1)c1ccc(F)cc1` (configuration not stated) was tested. Which Potency did it give?
A: The Potency was inconclusive [inhibitor, full curve, poor fit].

Q: For `CCn1c(=O)n(CC(=O)Nc2cc(OC)ccc2OC)c(=O)c2ccccc21`, which Potency is on record?
A: Its Potency is inconclusive [inhibitor, full curve, poor fit].

Q: For `CC(NC(=O)C(=O)N1CCCCC1)C(c1cccs1)N1CCN(c2ccccc2)CC1` (configuration not stated), which Potency is on record?
A: Its Potency is inconclusive [inhibitor, full curve, poor fit].

Q: `Cc1ccc(Cn2c(=N)c(C(=O)NCc3ccco3)cc3c(=O)n4ccccc4nc32)cc1` was tested. Which Potency did it give?
A: Its Potency is inconclusive [inhibitor, partial curve, poor fit].

Q: How did the Potency turn out when `CC1CCCC/C1=N\NS(=O)(=O)c1ccc(Br)cc1` (configuration not stated) was run?
A: Its Potency is inconclusive [inhibitor, single point].

Q: How did the Potency turn out when `O=C(Nc1ccccc1C(=O)O)c1ncn[nH]1` was run?
A: The Potency was inconclusive [inhibitor, partial curve, poor fit].

Q: Which Potency does the source give for `CNC(=S)NNC(=O)COc1ccc(C)c(C)c1` here?
A: The Potency was inconclusive [inhibitor, full curve, poor fit].

Q: For `Cc1cc(C)c(C#N)c(SCC(=O)c2cccs2)n1`, which Potency is on record?
A: Its Potency is inconclusive [inhibitor, full curve, poor fit].

Q: Which Potency does the source give for `COC(=O)c1ccccc1NC(=S)N(Cc1ccc2c(c1)OCO2)Cc1cc2ccc(C)cc2[nH]c1=O` here?
A: The Potency was “inactive”.

Q: For `Cc1ccc(NC(=O)C2=C(O)CCn3c2nc2ccccc23)cc1`, which Potency is on record?
A: The Potency was “inactive”.

Q: How did the Potency turn out when `COc1c(O)cc2c(c1O)[C@@H]1O[C@H](CO)[C@@H](O)[C@H](O)C1OC2=O` (some centres not stated) was run?
A: The Potency was inconclusive [inhibitor, full curve, poor fit].

Q: For `COc1ccc(Br)cc1/C=N/NC(=O)CNC(=O)C1COc2ccccc2O1` (configuration not stated), which Potency is on record?
A: Its Potency is inconclusive [inhibitor, partial curve].

Q: `Cc1ccc(N(C)C(=O)c2noc3c2CCCCC3)cc1C` was tested. Which Potency did it give?
A: The Potency was “inactive”.

Q: Which Potency does the source give for `Cc1ccc(-c2ncccc2OC(=O)C23CC4CC(CC(C4)C2)C3)cc1` here?
A: Its Potency is inconclusive [inhibitor, full curve, poor fit].

Q: With `Cc1cc(SCCOc2ccccc2)nc(N)n1` as the compound, how does the Potency read?
A: Its Potency is inconclusive [inhibitor, partial curve].
